Screen size: about 150,000 compounds; about 540 (0.36%) showed an effect of 50% or more. The list shows a part of the results.
Each molecule was assayed on Plasmodium falciparum (assay: Primary screen in NF54 nanoGlo assay, in single point, at 2uM, 72h; a lower Z score goes with more inhibition). Settings: timepoint 72 hour.
Format: functional, Erythrocyte

| Structure (SMILES) | % Inhibition | Z score |
| --- | --- | --- |
| c1cc(C2CCCC2)nc(-c2cn[nH]c2)n1 | 0% | -0.05 |
| CC(C)(C)CC(C)(C)NC(=O)[C@@H]1CCCO1 | 11% | -1.5 |
| CC(C)(C)n1nc(C2CCCC2)nc1Cn1ccnn1 | 3% | -0.42 |
| CCc1ccc([C@@H]2CCCCCN2CC(=O)NCC#N)o1 | -9% | 1.17 |
| CCc1nc(CCNC(=O)N2CCC[C@@]3(CCC(=O)N(CCO)C3)C2)no1 | 3% | -0.66 |
| NCC1CCCN1C(=O)C1CC1c1ccccc1OC(F)(F)F (stereo not drawn) | 5% | -0.63 |
| Cc1ncc(C(=O)NS(=O)(=O)c2ccc(F)cc2)s1 | -13% | 1.61 |
| O=S1(=O)C[C@@H]2[C@H](C1)N(Cc1ccc(OC(F)F)cc1)CCN2CCO | -4% | 0.76 |
| Cc1ccc(Cn2ccc(NC(=O)c3cc(C4CC4)nc4c3c(C3CC3)nn4-c3ccccc3)n2)cc1 | 0% | 0.05 |
| CCCC(=O)N1CCC(OC(=O)c2nccc3ccccc23)CC1 | -3% | 0.33 |
| CCC(NC(=O)Cc1ccoc1)C1CCCO1 (stereo not drawn) | 19% | -2.43 |
| Cc1ccnn2cc3c(=O)n(C)c(=O)n(C)c3c12 | -9% | 1.4 |
| Cc1cc(C)nc(CNc2nnc(C(C)(C)C)o2)n1 | -10% | 1.8 |
| CCOc1ccc(NC(=O)N2CCCC[C@H]2c2nn(CC)c3c2COCC3)cc1 | -1% | 0.19 |
| O=C1OCC[C@H]2CN(c3ccncc3F)CCN12 | -8% | 1.21 |
| CC(C)c1cc(N2CC(=O)N[C@@H](C)C2)n2ncnc2n1 | 1% | -0.15 |
| NC(=O)[C@H]1CCCN(Cc2cc(F)cc3c2OCOC3)C1 | -12% | 1.68 |
| Cc1ocnc1C(=O)NCCn1nc(C(F)(F)F)cc1C | -7% | 1.1 |
| COc1ccc(OC)c(-c2ncc(NC(=O)[C@@H]3COc4ccccc4O3)s2)c1 | -11% | 1.7 |
| O=C(c1nccc2ccccc12)N1CCC(C(=O)N2CCC3(CCCCO3)CC2)CC1 | -10% | 1.33 |
| COCCCN1C(=O)c2ccc(C(=O)Nc3ccc(Oc4ccc5ccccc5c4)cc3)cc2C1=O | 1% | -0.1 |

| Structure (SMILES) | % Inhibition | Z score |
| --- | --- | --- |
| Cn1cc(Cl)c(C(=O)N(Cc2ccncc2)C[C@@H]2CCC(=O)N2)n1 | 1% | -0.16 |
| CC(C)CCNC(=O)NCc1nnc(C(=O)Nc2ccc3c(c2)OCO3)s1 | 13% | -1.48 |
| CCN(CC)c1onc(-c2ccccc2)c1CN(Cc1ccc(F)cc1)C(=O)COC | -12% | 2.31 |
| Cc1cccc(CN2CCN3CCN(S(=O)(=O)c4ccccc4)CC[C@H]3C2=O)c1 | -21% | 2.8 |
| O=C(CN1CCN(Cn2cnc3ccccc32)CC1)Nc1ccccc1C(F)(F)F | -4% | 0.78 |
| Cc1cccc(C)c1NC(=O)N1CCCC2CC21 (stereo not drawn) | -7% | 0.93 |
| Nc1ccc(C(=O)Oc2ccccc2-c2ccccc2OC(=O)c2ccc(N)cc2)cc1 | -8% | 1.18 |
| COc1ccc(N2CCN(C(=O)c3ccc4c(c3)CCN4S(=O)(=O)c3ccccc3)CC2)cc1 | -8% | 1.47 |
| COc1ccc([C@H]2CN(C(=O)CN(C)Cc3ccc(F)cc3)C[C@@H]2N)cc1 | 1% | -0.15 |
| O=C(OC1CCCCCCC1)c1cccc(-n2cnnn2)c1 | -4% | 0.51 |
| O=C(CCc1cccs1)N1CCN(Cc2ccc3c(c2)OCO3)CC1 | -11% | 1.37 |
| CC(C)[C@H]1C(=O)N(C)CCN1S(=O)(=O)N1CCCC1 | 1% | -0.3 |
| CC[C@H](C)NC(=O)c1c(C)c(N2CCOCC2)c(C)n1Cc1cccc(C)c1 | 4% | -0.65 |
| CCn1ccnc1CN1CCn2c(Cl)ccc2[C@@H]1C | -1% | 0.06 |
| CC(C)C[C@@H]1NC(=O)[C@H]2Cc3ccccc3CN2C1=O | 0% | 0.06 |
| COCCCn1c(C)cc(C(=O)N2CCC[C@H](c3[nH]ccc3C(N)=O)C2)c1C | 6% | -0.69 |
| O=S(=O)(c1ccc(Oc2ccc(F)c(Cl)c2)nc1)N1CCOCC1 | -13% | 1.99 |
| CN(C)C(=O)CN1CC[C@]2(CCCO2)CCC1=O | 2% | -0.25 |
| Cc1cc(C)nc(-c2ccc(C(=O)N3CC[C@H]4CC[C@@H](C3)N4C)cc2)n1 | -5% | 0.95 |
| Cc1c(CNC(=O)CNC(=O)N(C)C)cnn1C | -18% | 2.36 |
| c1nc2c(c(N3CCC4(CCCC4)C3)n1)CCN([C@H]1CCCNC1)CC2 | 0% | -0.02 |

| Structure (SMILES) | % Inhibition | Z score |
| --- | --- | --- |
| Cc1nc2c(s1)CCC[C@@H]2NCc1nnc(-c2ccc(C)n2C)o1 | -4% | 0.57 |
| C[C@H](NC(=O)CCCn1cnnn1)C(C)(C)O | -5% | 1.03 |
| CN(CCO)C(=O)NCc1ccc(Br)o1 | -17% | 1.92 |
| CC(C)c1cc(N[C@H]2CC[C@H](n3cnnc3)CC2)nc(C(F)(F)F)n1 | 7% | -1.16 |
| OC[C@H](Nc1ncncc1Br)c1ccccc1F | 35% | -4.75 |
| Cc1nc(-c2ncc(C(=O)NC[C@H]3CCCO3)c(O)n2)cs1 | -19% | 1.81 |
| Cc1nn(-c2ccc(Br)cc2)c(NC(=O)N(C)[C@@H](C)c2ccccc2F)c1C | 2% | -0.23 |
| CC(C)OC1CCC(N[C@@H](C)c2ccc(Cl)s2)CC1 (stereo partly drawn) | 1% | -0.08 |
| CCC[C@H](C)C(=O)Nc1ccc(F)c(Cl)c1 | -12% | 2.34 |
| CCn1ncc(NC(=O)Cn2ccc(-c3nccnc3C)n2)n1 | 10% | -1.4 |
| CCOC(=O)c1c(S(=O)(=O)N2CCC[C@H](C(=O)Nc3ccc4c(c3)OCCO4)C2)c(C)n(CC)c1C | -6% | 0.54 |
| C[C@@H]1CN(C(=O)C2CC23CCN(C/C=C/c2ccc(N(C)C)cc2)CC3)C[C@H](C)O1 (stereo partly drawn) | -11% | 1.48 |
| CCN1CC2(CCN(Cc3nnc(C)o3)CC2)C[C@@H](c2ccccc2)C1=O | -11% | 1.57 |
| CC(C)c1ncc(C(=O)N2CCC[C@H](C#N)C2)c(=O)[nH]1 | -19% | 2.21 |
| c1ccc([C@@H]2NCC3(CCCC3)c3ccccc32)cc1 | 4% | -0.53 |
| CN(CC1(CO)CCC1)C(=O)c1ccc(-c2ccccn2)cc1 | 28% | -3.07 |
| CC1(C)CCc2nc(CN(CCO)C3CCCC3)sc2C1 | -18% | 1.58 |
| Cc1cc(N2CC[C@H](CN3CCOCC3)C2)nc(C)n1 | 4% | -0.72 |
| Cc1nc2ccc(NC(=O)N3CCCC[C@@H]3Cc3nn[nH]n3)cn2n1 | -6% | 1.18 |
| CS(=O)(=O)Cc1nc(Cc2ccccc2)cs1 | 0% | 0 |
| Cn1nccc1C(=O)N(CC1CCN(C2Cc3ccccc3C2)CC1)C[C@H]1CCCO1 | 4% | -0.57 |

| Structure (SMILES) | % Inhibition | Z score |
| --- | --- | --- |
| CCn1c(C(=O)NCCN(C)C2CCCCC2)cc2cc(S(=O)(=O)N(C)C)ccc21 | -13% | 1.8 |
| OC[C@H]1CCN(Cc2cc3c(cc2Cl)OCO3)C[C@@H]1O | -6% | 0.55 |
| CC1(C)[C@@H]2CC[C@@]1(C(=O)NCc1ccc(F)cc1)C(=O)C2 | -1% | 0.18 |
| O=C(N[C@H]1CC(=O)c2ccccc21)c1cnc(CC2CC2)s1 | 11% | -1.36 |
| O=C(O)c1cc(-c2ccc(C(=O)N3CCN4CCC[C@H]4C3)cc2)ccc1O | -10% | 1.5 |
| CCC(=O)Nc1ccc(F)c(NC(=O)NC2(C(N)=O)CCCCCC2)c1 | -4% | 0.56 |
| Cc1cc(CNc2ccc(Br)cc2CO)[nH]n1 | -7% | 1.33 |
| Fc1ccc2c(c1)CC[C@@H]2NCc1cnc(N2CCOCC2)nc1 | -5% | 0.79 |
| CCCNC(=O)N(CC(=O)N1CCc2sccc2C1COc1ccc(C(C)C)cc1)CC1CCCO1 (stereo not drawn) | -6% | 1.01 |
| CC(C)Oc1ccc(CN2CCCN(S(C)(=O)=O)[C@H]3CCC[C@H]3C(=O)NCC2)cc1 | -6% | 0.95 |
| COc1ccc2c(c1)CC(C)N(C(=O)c1cnns1)C2C (stereo not drawn) | -8% | 1.06 |
| Cc1sc2cc(C(=O)N3CCN(c4ccccc4F)CC3)[nH]c2c1CN1CCOCC1 | 3% | -0.31 |
| COc1ccc(-c2cnoc2-c2ccc(OCc3cccc(Cl)c3)cc2O)cc1OC | -7% | 0.86 |
| O=C(Nc1ccnn1C1CCCC1)c1ccc2cc[nH]c2c1 | -8% | 0.8 |
| COCCN(Cc1ccco1)S(=O)(=O)Cc1cc(C)no1 | -3% | 0.25 |
| CC1CCN(C(=O)c2ccccc2NC(=O)C2CCN(C)CC2)CC1 | -3% | 0.35 |
| COc1ccc(C(=O)N(Cc2cc(NC(=O)CC(C)C)ccc2N(C)C)C[C@H]2CCCO2)cc1 | -7% | 1.38 |
| COc1cccc(CN(C(=O)NC[C@H](C)OC)C2CCCC2)c1OC | -3% | 0.63 |
| Cc1cc(C)nc(N[C@H]2CCCN(C(N)=O)C2)n1 | -6% | 1.23 |
| CC(C)N1CCN(C(=O)c2csc(NC(=O)c3ccc(Cl)c(Cl)c3)n2)CC1 | -2% | 0.47 |
| COC(=O)Cc1cccc(NC(=O)NCc2ccncc2)n1 | 6% | -1.17 |

— ChEMBL document CHEMBL4888484, “Replenishing the malaria drug discovery pipeline: Screening and hit evaluation of the MMV Hit Generation Library 1 (HGL1) against asexual blood stage Plasmodium falciparum ,using a nano luciferase reporter read-out” (2022)
